Results from paper PMC12136788.
The list shows a part of the results.

B1: 69235085_69235205_3312_3pUTR_ENSG00000135679_ENST00000462284|human|control|control (ssRNA)
RNA: GGGAGUUCUACAGUCCGACGAUCGGCUGGAGAAUAAGUACAUUUUUACAGCCGGGUGUGGUGGCUAACGCCUGUAAUCCUACUUAGCACUUUGCGAGGCCAAGACAGGAGGAUCUCUUGAGCCCAGGAGUUCGAGACCAGCCUCAACAGAGGAUUGAGCAUCA
B2: 130011425_130011891_1932_CDS_ENSG00000084234_ENST00000528499|human|control|control (ssRNA)
RNA: GGGAGUUCUACAGUCCGACGAUCGGCCACUGCGAUGACCAGCAGGCCAAUGAGAGCACUGCUACUCAGACUGAAGUCCUCCCGCAGUGGGCCCACGGAUUCCCGCUCUUCCUCGAGGCCUCCAACUCUCUCGGCAUUGAAAAUCAACAGAGGAUUGAGCAUCA
B3: chr1:63226128:63226129:+_ENSMUSG00000025967_ENSMUST00000135877|mus_hu|motif|central (ssRNA)
RNA: GGGAGUUCUACAGUCCGACGAUCCUCAAAAGCAGUGAUCUGCUCCUCCAGCAUAUCUGUUCCAACUUUAUCAUCUUCAACGGCACACUGUAUUUGAAGUUUCUUAAUUCCGUAUCCCACUGGAACUAGUUUAGAUGAGCCCCACAACAGAGGAUUGAGCAUCA
B4: chr7:135612270:135612271:-_ENSG00000105887_ENST00000393085|hu_mus|hu_hu_hu_mus_False|1_8 (ssRNA)
RNA: GGGAGUUCUACAGUCCGACGAUCGUUUUUUUCUGAGAUGUUAAAUAGUACUUCAGUGGAAAACAAAACUUAACCUUUUAUUAAUGCGUGUUGUACCAAAAGCAGACAUUUUAGCUUCAUUUAUUCACUCAAAAUAUGAACAUUCAACAGAGGAUUGAGCAUCA
B5: 57314940_57316855_929_3pUTR_ENSG00000128050_ENST00000264221|human|control|control (ssRNA)
RNA: GGGAGUUCUACAGUCCGACGAUCGCAACCCACUCAAAGUUUUUCUUUACCAUUUGGAGCCCUUCAGGAGUUACUUCUUUGAGGUCCCGAUAAGACUGUUUGUCUUUCUGUUGGCUUCGAUCUCCUGAUGGCCAGAGUCUCCAGCAACAGAGGAUUGAGCAUCA
B6: chr12:86613709:86613710:-_ENSMUSG00000008822_ENSMUST00000008966|mus_hu|FALSE|FALSE (ssRNA)
RNA: GGGAGUUCUACAGUCCGACGAUCUUGCAAUUGUCCUUGCACUGUGCCCCGGUCAGUGUUCUGGACCCAGCCUACCAAUCCCAGCUUUUUACCCUCAGCCUGAGUAUGCUUACGGAAAAACACCCCUUGCACCUUCCCAAAAAUCAACAGAGGAUUGAGCAUCA
B7: chr8:25296883:25296884:-_ENSG00000104756_ENST00000221200|hu_hu|FALSE|FALSE (ssRNA)
RNA: GGGAGUUCUACAGUCCGACGAUCGUAGUUCAAAAUGGGUUCGAAGUACUCAGGACUUCGGUCAAUUAAGAAAGCUCCUCUAUGAUCUUGCUUAUUUCCCCAGACACCUUUGUCCUUAAACAUGUGGGCCAGCAUACUGUCAGGCAACAGAGGAUUGAGCAUCA
B8: 93826433_93826553_1586_3pUTR_ENSG00000117505_ENST00000370272|human|control|control (ssRNA)
RNA: GGGAGUUCUACAGUCCGACGAUCGAAAUGCAAAUGCAGAUUUAGAGCUUUGUAGAAAUUUCACUGUAUUUUUAUAAACUUGAAGUUAUCUGUAACACUGUUUAUUGAUCAAACGAAGGACUCGCUGCUAUCUAAAAUUUCAUACAACAGAGGAUUGAGCAUCA
B9: chr11:115359251:115359252:-_ENSMUSG00000020737_ENSMUST00000021083|mus_mus|FALSE|FALSE (ssRNA)
RNA: GGGAGUUCUACAGUCCGACGAUCACACAUCAGGAACCAGAUCAUCUGUUCUUAGAAACAGUCUACUACUCCAGUCUACUACUAGAAAACACUCAUGCCAUGGCGCACAGACCCAGGAGUCAGACAGACAGAAGGAAAGGAAGACAACAGAGGAUUGAGCAUCA
B10: 72196771_72196891_5085_CDS_ENSG00000197555_ENST00000555818|human|control|control (ssRNA)
RNA: GGGAGUUCUACAGUCCGACGAUCGGUGAAAAAGUGCUCCCUCUGGCUAUUGUAAAUGCUCUCGUCCGACAGUGUUCUGUGCAAGGCCCGCCGUGAGGUGGGGGUGCUGGGGAAAGGAGACUGAGGAGAGGAGAGUGCGUGGAACAACAGAGGAUUGAGCAUCA
B11: chr13:14146135:14146136:-_ENSMUSG00000021302_ENSMUST00000170957|mus_hu|motif|central (ssRNA)
RNA: GGGAGUUCUACAGUCCGACGAUCAGUGUAUUCAAAAGAACCUACAUCCUCAAGAUAAUGUACACAGUAUUUUUUUAUAUCGGUGUUUUCUGUUCUCUGGCGCAAGAUAUUCUGCACCUGGGUGCUUUCAGGCCUUGACCAAAUCAACAGAGGAUUGAGCAUCA
B12: chr18:56902939:56902940:+_ENSMUSG00000024590_ENSMUST00000025486|mus_hu|FALSE|FALSE (ssRNA)
RNA: GGGAGUUCUACAGUCCGACGAUCUGUGACACCAGCGUUUGCAGCCCAAAUUGUAACAGUCUGGCCUGCCUUCAGCACAUAUCUUGAGGUAUAUUUAUAACUGACUGAUGUGUCUCCAAUUUUUCUGAUCAUCUCCCAGCCUCCCAACAGAGGAUUGAGCAUCA
B13: 120444943_120445063_861_3pUTR_ENSMUSG00000027285_ENSMUST00000124187|mouse|control|control (ssRNA)
RNA: GGGAGUUCUACAGUCCGACGAUCGUAGGAGCUUUUUCCCACUGAGACAUCUUUCUGGCUCCACUAUUCCAUUAAUAUUGCUAGCAAGAAAAACUAUCAAUAUCCCUGUCACAACAAUCUAGAAACGGACUUCUUUGACUACAUCAACAGAGGAUUGAGCAUCA
B14: chr5:37680062:37680063:+_ENSMUSG00000029121_ENSMUST00000031004|mus_hu|mus_mus_mus_hu_False|28_98 (ssRNA)
RNA: GGGAGUUCUACAGUCCGACGAUCUUUGGGUGUAGCUGGCACCUCGUACACAGGACCGUCAUACAUGCCCCUGGAAACCCCUUGCAAUCCAAAAACCUUAUUCCUGAUCCUGACACGCUGGUACAGGUGCUCCGGGAACGCCUUCAACAGAGGAUUGAGCAUCA
B15: chr7:98534794:98534795:+_ENSG00000196367_ENST00000456197|hu_hu|FALSE|FALSE (ssRNA)
RNA: GGGAGUUCUACAGUCCGACGAUCUCAGGGCUUUGAAGAGUGCAGCGAUGAUUUUCUCCCUGGACUGAGGAAGGUAAUUGCAGGCAGCAAGUGCAUUUAAUGCCGCAAUUCGUAAAGGUACGAGUGACGGAAGGCUUUUAUAACCAACAGAGGAUUGAGCAUCA
B16: chr22:32894248:32894249:+_ENSG00000100225_ENST00000397426|hu_mus|FALSE|FALSE (ssRNA)
RNA: GGGAGUUCUACAGUCCGACGAUCAGGCAGUAUCGGCCUCUCAUCAUAUUCACCACCAAUGAUUCCUGGAGGAAGCAGCGAGGUGGGAAGGUAGGCCCUGGGGUAGACGGGAAUGGGACAAAAUGGGAUAGGGUGGGCUGAUGGCAACAGAGGAUUGAGCAUCA
B17: chr1:163112212:163112213:-_ENSG00000143248_ENST00000313961|hu_hu|hu_hu_hu_mus_False|28_48 (ssRNA)
RNA: GGGAGUUCUACAGUCCGACGAUCUUUUAUUAUCAGUAAGAGUGAGUUACAUACUAGGCAAAGUAUUGGAUACAAUAAUCAGGAAACAAACACAAUUGGUCCAGAAUUUAAAAUAUAAUGAGCGAAGUGCUGGCACAGGACUUACAACAGAGGAUUGAGCAUCA
B18: chr7:141438946:141438947:+_ENSG00000106028_ENST00000265304|hu_hu|FALSE|FALSE (ssRNA)
RNA: GGGAGUUCUACAGUCCGACGAUCAAGUACCUGUAAUACAGGUCUUCGAAACAUGGCUUCUAUUUUCUUUUCUUACAGUCUAAUCUUUAGGCUUUUCCUGACGAUCUAACCCGAGCAGCCCAGCCACGCAGGGGAUCACUUCCGCAACAGAGGAUUGAGCAUCA
B19: chr7:150710151:150710152:-_ENSMUSG00000059119_ENSMUST00000072727|mus_mus|FALSE|FALSE (ssRNA)
RNA: GGGAGUUCUACAGUCCGACGAUCGACAGCCCGUGGCACGAUGCGCUCACGAAAAAAGUGCCCAAUUUCAAAGUCAGAGGCUAAGGUGAACUCGGAAUCUUCAUCCAGAGAUUCUCCAUCUCCAGAGGCUUUCAGGGGGCUGAACAACAGAGGAUUGAGCAUCA
B20: chr17:65740002:65740003:+_ENSG00000130935_ENST00000581375|hu_hu|hu_hu_hu_mus_False|28_108 (ssRNA)
RNA: GGGAGUUCUACAGUCCGACGAUCAACCCGUUCUUGCUCCCUGGACGAACAGGAAGAUUCAUAUUAAAAAAAAUAUAUAUCCAUCAAGUUAGGUGUGGUGGCCACACAGAGCUCCAGAGCACUUUGGGAGGUGGAUCUCUGAGUCAACAGAGGAUUGAGCAUCA
B21: 7811237_7811739_5290_CDS_ENSG00000170004_ENST00000380358|human|control|control (ssRNA)
RNA: GGGAGUUCUACAGUCCGACGAUCCUGCCACAGUGUGUGAAGCUCUGUGAAGCCACCAUCGGCGAUAUUGAACAUGAACCGGGGCUUCUCUGUCUUUUCCUCUCGUCGCCCAUUGGACCGUGGCUCAUCUCGAGGCCCUGGUCGCAACAGAGGAUUGAGCAUCA
B22: chr11:76780297:76780298:+_ENSMUSG00000020840_ENSMUST00000021197|mus_mus|motif|central (ssRNA)
RNA: GGGAGUUCUACAGUCCGACGAUCGAAGUCAAUGGGCUGGUUGUUAUACAGCGUUUUUCUCCCUCCAACCAUAUUGCUCAAGUAGUCGGCUGUGUACAAUUUAUUGUACUUGUGCUGGGGCCGUGGGUCAUUCACAAAACAAAUCAACAGAGGAUUGAGCAUCA

target: T1, UNK ZnF1-3 (human, UniProt Q9C0B0 31-174); assay: nsRBNS (natural sequence RNA bind-n-seq); RBNS binding buffer (assumed for nsRBNS): 25 mM Tris pH 7.5, 150 mM KCl, 3 mM MgCl2, 0.01% Triton X-100, 500 ug/ml BSA, 20 U/ml SUPERase-In, 4 C; UNK is unkempt and MSI1 is Musashi-1; names of the RNAs are library labels; protein concentration not given here; high values mean tight binding
T1 sequence: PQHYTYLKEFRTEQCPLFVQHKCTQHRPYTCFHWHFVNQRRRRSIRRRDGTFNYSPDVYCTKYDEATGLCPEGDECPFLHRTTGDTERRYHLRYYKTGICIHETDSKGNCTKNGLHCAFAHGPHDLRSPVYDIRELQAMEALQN

**Q.** Which binding signal does the source give for B1 here?
**A.** The binding signal was 1.12 enrichment R.

**Q.** How did the binding signal turn out when B2 was run?
**A.** Its binding signal is 0.811 enrichment R.

**Q.** B3 was tested. Which binding signal did it give?
**A.** The binding signal was 0.91 enrichment R.

**Q.** For B4, which binding signal is on record?
**A.** The binding signal was 0.759 enrichment R.

**Q.** For B5, which binding signal is on record?
**A.** The binding signal was 0.473 enrichment R.

**Q.** For B6, which binding signal is on record?
**A.** Its binding signal is 1.24 enrichment R.

**Q.** How did the binding signal turn out when B7 was run?
**A.** Its binding signal is 1.08 enrichment R.

**Q.** With B8 as the binder, how does the binding signal read?
**A.** The binding signal was 0.898 enrichment R.

**Q.** With B9 as the binder, how does the binding signal read?
**A.** Its binding signal is 1.63 enrichment R.

**Q.** B10 was tested. Which binding signal did it give?
**A.** Its binding signal is 1.47 enrichment R.

**Q.** How did the binding signal turn out when B11 was run?
**A.** Its binding signal is 0.574 enrichment R.

**Q.** B12 was tested. Which binding signal did it give?
**A.** Its binding signal is 0.929 enrichment R.

**Q.** With B13 as the binder, how does the binding signal read?
**A.** Its binding signal is 1.05 enrichment R.

**Q.** Which binding signal does the source give for B14 here?
**A.** The binding signal was 0.868 enrichment R.

**Q.** With B15 as the binder, how does the binding signal read?
**A.** Its binding signal is 1.34 enrichment R.

**Q.** For B16, which binding signal is on record?
**A.** Its binding signal is 1.6 enrichment R.

**Q.** Which binding signal does the source give for B17 here?
**A.** The binding signal was 1.93 enrichment R.

**Q.** B18 was tested. Which binding signal did it give?
**A.** Its binding signal is 0.777 enrichment R.

**Q.** For B19, which binding signal is on record?
**A.** The binding signal was 1.2 enrichment R.

**Q.** Which binding signal does the source give for B20 here?
**A.** Its binding signal is 1.51 enrichment R.

**Q.** With B21 as the binder, how does the binding signal read?
**A.** Its binding signal is 0.657 enrichment R.

**Q.** Which binding signal does the source give for B22 here?
**A.** The binding signal was 0.66 enrichment R.
